Measurements as given in the supplement of paper PMC4604168 (melanoma cell lines).
This is one part of the list. Repeats are few or missing, and single values can be far off.

Key:
Assay in all cases: cell count relative to DMSO control; melanoma cells; higher = more viable cells
Details in all cases: library dose: low library concentration; 72 h
MZ2-MEL = tested on: MZ2-MEL
MeWo = tested on: MeWo
RPMI7951 = tested on: RPMI7951
RVH-421 = tested on: RVH-421
SkMel28 = tested on: SkMel28
SkMel2 = tested on: SkMel2
SkMel30 = tested on: SkMel30
SkMel5 = tested on: SkMel5
UACC257 = tested on: UACC257
UACC62 = tested on: UACC62
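Note: cell number obtained by counting DAPI-stained nuclei in high-throughput microscope images with image analysis software, screen run in 1,536-well plates.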

Row | Compound | cell count (MZ2-MEL) [%] | cell count (MeWo) [%] | cell count (RPMI7951) [%] | cell count (RVH-421) [%] | cell count (SkMel28) [%] | cell count (SkMel2) [%] | cell count (SkMel30) [%] | cell count (SkMel5) [%] | cell count (UACC257) [%] | cell count (UACC62) [%]
1 | Cn1cnc2c(F)c(Nc3ccc(Br)cc3Cl)c(C(=O)NOCCO)cc21 [selumetinib] + COc1ccc(COc2ccc(Cc3cnc(N)nc3N)cc2OC)cc1 [GW2580] (first compound 0.015 µM, partner dose 1 µM) | 114 | 103 | 127 | 92.2 | 93.4 | 81 | 81.4 | 126 | 90.6 | 79.7
2 | Cn1cnc2c(F)c(Nc3ccc(Br)cc3Cl)c(C(=O)NOCCO)cc21 [selumetinib] + CCN(CC)CCCCNc1ncc2cc(-c3cc(OC)cc(OC)c3)c(NC(=O)NC(C)(C)C)nc2n1 [PD173074] (first compound 0.015 µM, partner dose 0.1 µM) | 94.9 | 95.1 | 88.4 | 108 | 92.5 | 68.3 | 67.9 | 105 | 102 | 83.5
3 | COc1cc([C@@H]2c3cc4c(cc3[C@@H](O[C@@H]3O[C@@H]5CO[C@@H](C)O[C@H]5[C@H](O)[C@H]3O)[C@H]3COC(=O)[C@H]23)OCO4)cc(OC)c1O [etoposide] + O=S(=O)(c1ccccc1)N(CC(F)(F)F)c1ccc(C(O)(C(F)(F)F)C(F)(F)F)cc1 [T0901317] (first compound 0.02 µM, partner dose 1.4 µM) | 91.9 | 69.7 | 78.6 | 93 | 89.4 | 93.6 | 86.6 | 89.9 | 76.4 | 80.4
4 | CCN(CC)CCNC(=O)c1c(C)[nH]c(/C=C2\C(=O)Nc3ccc(F)cc32)c1C [sunitinib] + COc1ccc(Cl)c(Nc2nc3ccccc3nc2NS(=O)(=O)c2cccc(NC(=O)C(C)(C)N)c2)c1 [XL147] (first compound 0.4 µM, partner dose 0.8 µM) | 101 | 89 | 100 | 127 | 91.6 | 127 | 77.9 | – | – | 85.7
5 | CCN(CC)CCNC(=O)c1c(C)[nH]c(/C=C2\C(=O)Nc3ccc(F)cc32)c1C [sunitinib] + Cn1cncc1[C@@](N)(c1ccc(Cl)cc1)c1ccc2c(c1)c(-c1cccc(Cl)c1)cc(=O)n2C [tipifarnib] (first compound 0.4 µM, partner dose 0.01 µM) | 99.3 | 76.7 | 95.8 | 86.3 | 87.6 | 96 | 93 | 107 | 59.7 | 57.3
6 | Cn1cnc2c(F)c(Nc3ccc(Br)cc3Cl)c(C(=O)NOCCO)cc21 [selumetinib] + Cn1sc(=O)n(Cc2ccccc2)c1=O [TDZD-8] (first compound 0.015 µM, partner dose 0.4 µM) | 98.4 | 96.2 | 94.2 | 92.1 | 78.1 | 70.9 | 60.1 | – | – | 79.3
7 | Cn1cnc2c(F)c(Nc3ccc(Br)cc3Cl)c(C(=O)NOCCO)cc21 [selumetinib] + O=S(=O)(c1ccccc1)N(CC(F)(F)F)c1ccc(C(O)(C(F)(F)F)C(F)(F)F)cc1 [T0901317] (first compound 0.015 µM, partner dose 1.4 µM) | 97.5 | 86.8 | 90.5 | 76.1 | 83.2 | 75 | 81.6 | 111 | 84.9 | 74.6
8 | CCN(CC)CCNC(=O)c1c(C)[nH]c(/C=C2\C(=O)Nc3ccc(F)cc32)c1C [sunitinib] + O=c1cc(-c2cccc3c2Sc2ccccc2S3)oc(N2CCOCC2)c1 [KU55933] (first compound 0.4 µM, partner dose 1 µM) | 110 | 81.2 | 104 | 108 | 77.7 | 103 | 62.9 | 99.3 | 82.2 | 75.6
9 | COc1cc([C@@H]2c3cc4c(cc3[C@@H](O[C@@H]3O[C@@H]5CO[C@@H](C)O[C@H]5[C@H](O)[C@H]3O)[C@H]3COC(=O)[C@H]23)OCO4)cc(OC)c1O [etoposide] + O=C(Nc1ccccc1)c1cc([N+](=O)[O-])ccc1Cl [GW9662] (first compound 0.02 µM, partner dose 2 µM) | 90.1 | 85.8 | 84.1 | 96.6 | 97.8 | 84.5 | 107 | 100 | 86.1 | 68.8
10 | Cn1cnc2c(F)c(Nc3ccc(Br)cc3Cl)c(C(=O)NOCCO)cc21 [selumetinib] + CN(NC(=O)CC(=O)NN(C)C(=S)c1ccccc1)C(=S)c1ccccc1 [STA4783] (first compound 0.015 µM, partner dose 0.006 µM) | 80.2 | 72.3 | 128 | 68.6 | 98.1 | 78.2 | 55.8 | 111 | 85.5 | 69.3
11 | CCN(CC)CCNC(=O)c1c(C)[nH]c(/C=C2\C(=O)Nc3ccc(F)cc32)c1C [sunitinib] + COc1ccc(COc2ccc(Cc3cnc(N)nc3N)cc2OC)cc1 [GW2580] (first compound 0.4 µM, partner dose 1 µM) | 102 | 89.6 | 104 | 95.2 | 102 | 112 | 82.7 | 90.8 | 88.4 | 88.6
12 | C[C@]1(O)C[C@@H](c2nc(-c3ccc4ccc(-c5ccccc5)nc4c3)c3c(N)nccn32)C1 + COc1cc(N2CCC(N3CCN(C)CC3)CC2)ccc1Nc1ncc(Cl)c(Nc2ccccc2S(=O)(=O)C(C)C)n1 [NVP-TAE684] (first compound 0.4 µM, partner dose 0.08 µM) | 104 | 94.1 | 101 | 97.9 | 90 | 80.2 | 112 | 96.6 | 75.8 | 86.3
13 | Cn1cnc2c(F)c(Nc3ccc(Br)cc3Cl)c(C(=O)NOCCO)cc21 [selumetinib] + CC(C)(C)c1cnc(CSc2cnc(NC(=O)C3CCNCC3)s2)o1 [SNS-032] (first compound 0.015 µM, partner dose 0.01 µM) | 80.3 | 87 | 91.6 | 91.2 | 95.3 | 73.6 | 87.4 | 124 | 99.1 | 73.9
14 | C[C@]1(O)C[C@@H](c2nc(-c3ccc4ccc(-c5ccccc5)nc4c3)c3c(N)nccn32)C1 + O=C(O)c1ccc2c(c1)nc(Nc1cccc(Cl)c1)c1ccncc12 [CX4945] (first compound 0.4 µM, partner dose 0.4 µM) | 91.6 | 89.4 | 110 | 80.8 | 109 | 80.9 | 74.6 | – | – | 91.5
15 | C[C@]1(O)C[C@@H](c2nc(-c3ccc4ccc(-c5ccccc5)nc4c3)c3c(N)nccn32)C1 + CCCS(=O)(=O)Nc1ccc(F)c(C(=O)c2c[nH]c3ncc(Cl)cc23)c1F [PLX4720] (first compound 0.4 µM, partner dose 0.08 µM) | 85.1 | 104 | 93.8 | 79.5 | 86.5 | 85.7 | 79.7 | – | – | 63.6
16 | COc1cc([C@@H]2c3cc4c(cc3[C@@H](O[C@@H]3O[C@@H]5CO[C@@H](C)O[C@H]5[C@H](O)[C@H]3O)[C@H]3COC(=O)[C@H]23)OCO4)cc(OC)c1O [etoposide] + C[C@]1(c2nc3c(C(N)=O)cccc3[nH]2)CCCN1 [Veliparib] (first compound 0.02 µM, partner dose 1.4 µM) | 89.8 | 86.6 | 101 | 106 | 104 | 90.4 | 103 | – | – | 98.2
17 | CCN(CC)CCNC(=O)c1c(C)[nH]c(/C=C2\C(=O)Nc3ccc(F)cc32)c1C [sunitinib] + Cc1cc(Nc2cc(N3CCN(C)CC3)nc(/C=C/c3ccccc3)n2)n[nH]1 [ENMD2076] (first compound 0.4 µM, partner dose 0.04 µM) | 118 | 88 | 112 | 115 | 112 | 110 | 85.7 | – | – | 99.4
18 | CCN(CC)CCNC(=O)c1c(C)[nH]c(/C=C2\C(=O)Nc3ccc(F)cc32)c1C [sunitinib] + CN1CCN(c2ccc3nc(-c4c(N)c5c(F)cccc5[nH]c4=O)[nH]c3c2)CC1 [Dovitinib] (first compound 0.4 µM, partner dose 0.1 µM) | 88 | 90.1 | 115 | 113 | 73.5 | 93 | 73.2 | – | – | 91.5
19 | CCN(CC)CCNC(=O)c1c(C)[nH]c(/C=C2\C(=O)Nc3ccc(F)cc32)c1C [sunitinib] + CC(=O)c1c(C)c2cnc(Nc3ccc(N4CCNCC4)cn3)nc2n(C2CCCC2)c1=O [palbociclib] (first compound 0.4 µM, partner dose 0.04 µM) | 87.9 | 75.2 | 88.8 | 115 | 78.5 | 93 | 64.2 | – | – | 79.1
20 | C[C@]1(O)C[C@@H](c2nc(-c3ccc4ccc(-c5ccccc5)nc4c3)c3c(N)nccn32)C1 + C=CCNC1=C2C[C@@H](C)C[C@H](OC)[C@H](O)[C@@H](C)/C=C(\C)[C@H](OC(N)=O)[C@@H](OC)/C=C\C=C(/C)C(=O)NC(=CC1=O)C2=O [Tanespimycin] (first compound 0.4 µM, partner dose 0.002 µM) | 94.4 | 77.4 | 88.4 | 95.5 | 84.8 | 79.4 | 99.3 | – | – | 90.9
